According to the supplement of paper PMC6609913:
Structures can show the parent of a compound that is named as a salt. ± gives the standard deviation of the averaged measurements. The full ranking holds about 1,300 compounds; the median of “normalised cell viability” is about 1, and the lowest 2% start at about 0.15. The list shows a part of the results.

Test system: V-C8 + BRCA2 (BRCA2-proficient hamster cells)
Experiment: normalised cell viability (fraction of plate median); higher = more viable cells (less toxic)
Details: 5 µM
Method in brief: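 BRCA2-deficient hamster V-C8 cells and BRCA2-restored V-C8 cells were plated in 96-well plates, and library drugs were added 24 h later at 5 μM in 100 μl medium. Exposure lasted 3 days in screen 1 and 6 days in screen 2, next to solvent-only wells. Viability was then read by resazurin assay, median-plate normalised and averaged across triplicate wells.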

Compound | normalised cell viability (treatment time: 3 days) | normalised cell viability (treatment time: 6 days)
CC(C)(C)NC[C@@H](O)COc1cccc2c1CCCC2=O [(+) -Levobunolol hydrochloride] | 1.016 ± 0.0063 | 1.01 ± 0.039
N=C(N)NC(=N)NCCc1ccccc1 [Phenformin hydrochloride] | 1.01 ± 0.029 | 0.9752 ± 0.0082
C[C@H]1O[C@H](O[C@H]2[C@H](O)[C@@H](O)[C@@H](O[C@H]3[C@H](O)[C@@H](O)C(O)O[C@@H]3CO)O[C@@H]2CO)[C@H](O)[C@@H](O)[C@@H]1N[C@H]1C=C(CO)[C@@H](O)[C@H](O)[C@H]1O (some centres undefined) [Acarbose] | 0.928 ± 0.072 | 1.03 ± 0.056
NNCCc1ccccc1 [Phenelzine sulfate] | 1.01 ± 0.04 | 0.959 ± 0.058
CC(=O)S[C@@H]1CC2=CC(=O)CC[C@]2(C)[C@H]2CC[C@@]3(C)[C@@H](CC[C@@]34CCC(=O)O4)[C@H]12 [Spironolactone] | 1.12 ± 0.041 | 1.01 ± 0.077
CCCc1cc(C(N)=S)ccn1 [Prothionamide] | 0.993 ± 0.021 | 1.03 ± 0.046
CC(Cc1cccc(C(F)(F)F)c1)NCCOC(=O)c1ccccc1 (centres undefined) [Benfluorex hydrochloride] | 1.18 ± 0.023 | 1.05 ± 0.064
OCC(O)CN1CCN(c2ccccc2)CC1 (racemic) [Dropropizine (R,S)] | 1.07 ± 0.041 | 0.9583 ± 0.0092
CNc1ncnc2c1ncn2[C@@H]1O[C@H](CO)[C@@H](O)[C@H]1O [N6-methyladenosine] | 1.13 ± 0.12 | 1 ± 0.012
CC(C)(C)C(=O)OCOC(=O)[C@@H]1N2C(=O)[C@@H](/N=C/N3CCCCCC3)[C@H]2SC1(C)C [Pivmecillinam hydrochloride] | 0.993 ± 0.063 | 1.05 ± 0.065
C[C@@H](O)[C@H]1C(=O)N2C(C(=O)O)=C(SCCNC=N)C[C@H]12 [Imipenem] | 1.005 ± 0.0084 | 1.01 ± 0.062
c1ccc2c(c1)CCCC2C1=NCCN1 (centres undefined) [Tetrahydrozoline hydrochloride] | 0.982 ± 0.046 | 1.03 ± 0.084
O=C1NCCN1c1ncc([N+](=O)[O-])s1 [Niridazole] | 1.01 ± 0.016 | 1.04 ± 0.048
C1N2CN3CN1CN(C2)C3 [Methenamine] | 1.01 ± 0.067 | 0.95 ± 0.032
CCCCCN(C)CCC(O)(P(=O)(O)O)P(=O)(O)O [Ibandronate sodium] | 0.796 ± 0.035 | 0.181 ± 0.0055
Nc1ccc(S(=O)(=O)NC(=O)c2ccccc2)cc1 [Sulfabenzamide] | 0.913 ± 0.014 | 1.03 ± 0.015
C=C(CC)C(=O)c1ccc(OCC(=O)O)c(Cl)c1Cl [Ethacrynic acid] | 1.07 ± 0.015 | 1.03 ± 0.067
CCN(CC)CCCC(C)Nc1ccnc2cc(Cl)ccc12 (centres undefined) [Chloroquine diphosphate] | 0.852 ± 0.023 | 0.938 ± 0.082
CS(=O)(=O)c1ccc([C@@H](O)[C@@H](CF)NC(=O)C(Cl)Cl)cc1 [Florfenicol] | 0.806 ± 0.048 | 0.905 ± 0.14
Oc1ccc(C2CNCCc3c2cc(O)c(O)c3Cl)cc1 (centres undefined) [Fenoldopam] | 0.972 ± 0.04 | 1 ± 0.06
CC(C(=O)O)c1cccc(Oc2ccccc2)c1 (centres undefined) [Fenoprofen calcium salt dihydrate] | 1.02 ± 0.034 | 0.997 ± 0.086

Compound | normalised cell viability (treatment time: 3 days) | normalised cell viability (treatment time: 6 days)
CCCc1ncc(C[n+]2ccccc2C)c(N)n1 [Amprolium hydrochloride] | 0.925 ± 0.068 | 1.1 ± 0.23
CCn1cc(C(=O)O)c(=O)c2cc(F)c(N3CCNCC3)nc21 [Enoxacin] | 0.995 ± 0.058 | 1.033 ± 0.01
CC(=O)OCC(=O)NCCCOc1cccc(CN2CCCCC2)c1 [Roxatidine Acetate HCl] | 0.429 ± 0.011 | 0.467 ± 0.018
OCCN1CCN(CCCN2c3ccccc3Sc3ccc(C(F)(F)F)cc32)CC1 [Fluphenazine dihydrochloride] | 0.825 ± 0.062 | 0.662 ± 0.096
CC(C)(Oc1ccc(CCNC(=O)c2ccc(Cl)cc2)cc1)C(=O)O [Bezafibrate] | 1.003 ± 0.0026 | 1.01 ± 0.07
c1ccc(CC2=NCCN2)cc1 [Tolazoline hydrochloride] | 0.982 ± 0.014 | 0.957 ± 0.063
Clc1ccc2c(c1)C(N1CCNCC1)=Nc1ccccc1O2 [Amoxapine] | 0.827 ± 0.043 | 0.786 ± 0.087
O=C1c2ccccc2C(=O)C1c1ccccc1 [Phenindione] | 1 ± 0.026 | 1.05 ± 0.037
O=C(O)CCc1nc(-c2ccccc2)c(-c2ccccc2)o1 [Oxaprozin] | 1.06 ± 0.11 | 1.12 ± 0.078
CC[C@H]1OC(=O)[C@H](C)[C@@H](O[C@H]2C[C@@](C)(OC)[C@@H](O)[C@H](C)O2)[C@H](C)[C@@H](O[C@@H]2O[C@H](C)C[C@H](N(C)C)[C@H]2O)[C@](C)(O)C[C@@H](C)C(=O)[C@H](C)[C@@H](O)[C@]1(C)O [Erythromycin] | 0.912 ± 0.017 | 0.985 ± 0.051
CCCSc1ccc2[nH]c(NC(=O)OC)nc2c1 [Albendazole] | 0.198 ± 0.0084 | 0.183 ± 0.011
Cc1c(Cl)cccc1Nc1ccccc1C(=O)O [Tolfenamic acid] | 0.962 ± 0.086 | 1.12 ± 0.073
CO[C@H]1/C=C/O[C@@]2(C)Oc3c(C)c(O)c4c(O)c(c(/C=N/N5CCN(C)CC5)c(O)c4c3C2=O)NC(=O)/C(C)=C\C=C\[C@H](C)[C@H](O)[C@@H](C)[C@@H](O)[C@@H](C)[C@H](OC(C)=O)[C@@H]1C [Rifampicin] | 1.01 ± 0.029 | 0.989 ± 0.036
Cc1ccc(N(CC2=NCCN2)c2cccc(O)c2)cc1 [Phentolamine hydrochloride] | 0.9957 ± 0.0093 | 0.989 ± 0.11
CCc1ccc(CCOc2ccc(CC3SC(=O)NC3=O)cc2)nc1 (centres undefined) [Pioglitazone] | 0.354 ± 0.027 | 0.259 ± 0.025
C[C@H](N[C@@H](CCc1ccccc1)C(=O)O)C(=O)N1CCC[C@H]1C(=O)O [Enalaprilat dihydrate] | 1.01 ± 0.011 | 1.09 ± 0.077
CN(C)[C@@H]1C(O)=C(C(N)=O)C(=O)[C@@]2(O)C(O)=C3C(=O)c4c(O)cccc4[C@@](C)(O)[C@H]3C[C@@H]12 [Tetracycline hydrochloride] | 1.1 ± 0.052 | 1.03 ± 0.058
CC(=O)[C@@]12O[C@](C)(c3ccccc3)O[C@@H]1C[C@H]1[C@@H]3CCC4=CC(=O)CC[C@]4(C)[C@H]3CC[C@@]12C [Algestone acetophenide] | 0.968 ± 0.025 | 1.07 ± 0.1
COCCCC/C(=N\OCCN)c1ccc(C(F)(F)F)cc1 [Fluvoxamine maleate] | 0.97 ± 0.029 | 1.17 ± 0.13
COC(=O)[C@H](c1ccccc1Cl)N1CCc2sccc2C1 [Clopidogrel] | 1.01 ± 0.053 | 1.04 ± 0.021
C[C@]12CCC(=O)C=C1CC[C@@H]1[C@@H]2C(=O)C[C@@]2(C)[C@H]1CC[C@]2(O)C(=O)CO [Cortisone] | 0.997 ± 0.02 | 1.06 ± 0.063
